# Measured values taken from publication PMC4336329 (PLoS ONE, 2015).
# The whole screen tested about 310,000 compounds, of which about 2,200 (0.71%) showed an effect of 50% or more. The effect is printed as a negative number. The list shows a part of the results.
# Target: human ether-à-go-go-related gene (hERG) potassium channel (human, UniProt Q12809)
# Experiment: primary screen, population patch clamp on CHO cells stably expressing hERG
# Chain of human ether-à-go-go-related gene (hERG) potassium channel (Q12809 whole entry, looked up): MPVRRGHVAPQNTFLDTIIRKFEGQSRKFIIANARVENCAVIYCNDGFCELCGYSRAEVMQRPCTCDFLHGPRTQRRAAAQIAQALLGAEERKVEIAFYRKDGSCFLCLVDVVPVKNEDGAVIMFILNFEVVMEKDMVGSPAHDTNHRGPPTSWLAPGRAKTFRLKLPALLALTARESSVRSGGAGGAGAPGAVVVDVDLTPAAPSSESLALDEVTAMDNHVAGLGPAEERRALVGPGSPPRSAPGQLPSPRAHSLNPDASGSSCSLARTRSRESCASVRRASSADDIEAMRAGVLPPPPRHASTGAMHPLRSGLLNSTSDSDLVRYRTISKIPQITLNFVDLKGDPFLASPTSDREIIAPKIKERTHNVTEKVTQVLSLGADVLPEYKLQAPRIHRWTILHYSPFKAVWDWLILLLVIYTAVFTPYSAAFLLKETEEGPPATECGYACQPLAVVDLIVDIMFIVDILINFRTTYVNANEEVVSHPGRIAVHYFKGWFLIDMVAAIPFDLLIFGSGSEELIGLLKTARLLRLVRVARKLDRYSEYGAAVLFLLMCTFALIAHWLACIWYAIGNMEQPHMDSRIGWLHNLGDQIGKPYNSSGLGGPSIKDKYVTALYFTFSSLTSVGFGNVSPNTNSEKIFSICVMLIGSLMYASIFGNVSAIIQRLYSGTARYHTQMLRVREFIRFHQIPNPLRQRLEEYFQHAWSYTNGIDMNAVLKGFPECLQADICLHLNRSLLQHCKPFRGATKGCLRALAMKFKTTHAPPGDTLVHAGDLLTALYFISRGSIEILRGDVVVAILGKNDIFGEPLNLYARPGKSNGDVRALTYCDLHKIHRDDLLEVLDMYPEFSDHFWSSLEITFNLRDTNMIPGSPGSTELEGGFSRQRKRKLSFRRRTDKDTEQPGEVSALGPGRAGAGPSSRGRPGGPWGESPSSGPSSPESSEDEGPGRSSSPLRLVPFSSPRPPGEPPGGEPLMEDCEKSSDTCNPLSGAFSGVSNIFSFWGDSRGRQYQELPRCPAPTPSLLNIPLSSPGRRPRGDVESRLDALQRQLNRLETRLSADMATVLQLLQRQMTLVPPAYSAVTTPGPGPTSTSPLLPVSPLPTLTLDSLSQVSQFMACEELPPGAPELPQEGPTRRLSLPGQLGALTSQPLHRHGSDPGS
row,Compound,"hERG current change (%, negative = inhibition) at 1uM [%]"
1,O=C(NC(Cc1ccccc1)C(=O)O)c1ccco1 (centres unmarked),13
2,COS(=O)(=O)[O-].Cc1ccc(S(=O)(=O)Cc2sc3ccccc3[n+]2C)cc1,7.62
3,O=S(=O)(CCc1nc2ccccc2o1)c1ccc(Cl)c(Cl)c1,7.06
4,FC(F)(F)c1cc(N2CCNCC2)c2ccccc2n1,11.4
5,O=C(Nc1ccc(F)cc1)c1nsc(Cl)c1Cl,9.66
6,CCN(Cc1ccccc1)C(=O)C1CCN(C(=O)Nc2ccccc2)CC1,3.54
7,Cc1cc(-c2ccccc2)nc(N/N=C/c2ccc(O)cc2O)n1,9.59
8,CCCCCCCC(=O)N/N=C(\C)c1ccc(O)cc1O,-2.34
9,Cc1ccc(CCNC(=O)C2CC(=O)N(CCc3ccccc3)C2)cc1 (centres unmarked),15
10,COc1ccc(OC)c(CNC(=O)C2CCC(=O)N2C(C)C)c1 (centres unmarked),10.6
11,O=C(Nc1ccccc1)N1CCCC1c1cccs1 (centres unmarked),12.7
12,Cc1ccc(-n2c(C)cc(/C=N/NC(=O)Cn3c4ccccc4c(=O)c4ccccc43)c2C)cc1,13.7
13,CCCCn1nc(C(=O)N2CCN(S(=O)(=O)c3ccccc3)CC2)c2ccccc2c1=O,10.8
14,COc1ccccc1CNC(=O)COC(=O)CSc1ccc(F)cc1,11.5
15,Cc1ccc(C(=O)N2CC=C(c3ccccc3)CC2)s1,9.07
16,Cn1c(=O)[nH]c(=O)c2c1nc(SCCO)n2CC(O)COc1ccccc1 (centres unmarked),19.4
17,O=c1c(CN2CCN(Cc3ccccc3)CC2)coc2ccc(Cl)cc12,3.23
18,COC(=O)c1cncn1C(C)c1ccccc1.Cl (centres unmarked),13.9
19,COc1ccc(C(=O)Oc2c(OC)cc(C(=S)N3CCOCC3)cc2OC)cc1,11.4
20,Cc1csc2ncnc(N3CCN(C(=O)Nc4ccc(OC(F)(F)F)cc4)CC3)c12,0.933
21,FC(F)(F)c1ccccc1CNCc1ccncc1,11.6
22,CNC(=O)c1ccc(Nc2nc(-c3ccccc3)nc3ccccc23)cc1,16.1

row,Compound,"hERG current change (%, negative = inhibition) at 1uM [%]"
1,COc1cccc(NC(=O)C2CC(=O)N=C(N)S2)c1 (centres unmarked),11.4
2,CCC1(C)CC(CCNCc2ccc(N(C)C)cc2)(c2ccc(F)cc2)CCO1 (centres unmarked),7.91
3,Cc1ccc(-c2cc(C(=O)NC3=NCCS3)c3cc(Br)ccc3n2)o1,12.7
4,Cc1ccc(S(=O)(=O)/N=C(/NC(=S)Nc2ccccc2)c2ccccc2)cc1,0.508
5,O=C1CC(Nc2ccc(N3CCOCC3)cc2)C(=O)N1CCc1ccccc1 (centres unmarked),3.73
6,CCO[C@@H]1OC(C(=O)N2CCOCC2)=C[C@H](c2coc3ccccc3c2=O)[C@H]1CCCO,6.91
7,CCCOc1ccc(Cn2c(C)nc([N+](=O)[O-])c2SCC(O)COC)cc1[N+](=O)[O-] (centres unmarked),-28
8,COCCN1C(=O)CS/C1=C(/C#N)C(=O)NCc1ccco1,2.38
9,CCc1nnc(NC(=O)CSc2nnc(Cc3cc(=O)[nH]c(=O)[nH]3)n2-c2ccc(OC)cc2)s1,-2.63
10,CCn1c(C)nc2cc(C(=O)NNS(=O)(=O)c3cc(Br)ccc3Br)ccc21,8.68
11,Cn1cc(CNCc2cn[nH]c2-c2ccc(F)cc2)c(-c2ccc3c(c2)OCCO3)n1,-3.31
12,Cc1ccc(NC(=O)C2=C(c3ccccc3)S(=O)(=O)CCS2(=O)=O)cc1,13.1
13,CC(Oc1ccc2ccc(=O)oc2c1)C(=O)NC1CC(C)(C)NC(C)(C)C1 (centres unmarked),20.5
14,COc1cccc(-n2c(SCC(=O)Nc3ccc4c(c3)CCC4)nc3ccccc3c2=O)c1,5.97
15,OCCNc1ncnc2c1sc1nc(N3CCOCC3)c3c(c12)CCC3,1.75
16,O=C(c1ccccc1O)N1CCOCC1,6.03
17,COc1ccc2nc(NC(=O)c3ccccc3[N+](=O)[O-])sc2c1,1.83
18,O=C1/C(=C/c2ccc([N+](=O)[O-])cc2)C=C(c2ccccc2)N1c1ccccc1,-0.029
19,CCOC(=O)CSc1c(-c2ccccc2)c2cc(Cl)ccc2[nH]c1=O,4.76
20,Cc1c(C(=O)N2CCCCC2)c(S(=O)(=O)N2CCN(c3ccc(Cl)cc3)CC2)c(C)n1C,-4.76
21,COC(=O)c1ccc(C2/C(=C(\O)c3cccc(OC)c3)C(=O)C(=O)N2CCCN2CCOCC2)cc1 (centres unmarked),15.1
22,CC(C)(C)c1ccc(S(=O)(=O)CC(O)CSc2nc3c(cc2C#N)CCCC3)cc1 (centres unmarked),11.1
